Results reported in article PMC11149917, “Translational and Therapeutic Evaluation of RAS-GTP Inhibition by RMC-6236 in RAS-Driven Cancers” (Cancer Discovery, 2024).
Further values from the same series stand in other lists.

Test system: PRISM panel of 845 cancer cell lines
Assay: PRISM assay
Format: cell-based, human
Experimental: The PRISM cell set comprised 845 cell lines representing more than 45 lineages (see Supplementary Table S1 for cell line information), which largely overlapped with the Cancer Cell Line Encyclopedia; https://portals.broadinstitute.org/ccle). Cell lines were grown in RPMI without phenol red and supplemented with 10% or 20% FBS for adherent and suspended lines, respectively. Parental cell lines were stably infected with a unique 24-nucleotide DNA barcode via lentiviral transduction and blasticidin selection. After selection, barcoded cell lines were expanded and subjected to quality control (Mycoplasma contamination test, an SNP test for confirming cell line identity, and barcode ID confirmation). Approved cell lines were then pooled (20–25 cell lines per pool) based on doubling time similarity and frozen in assay-ready vials.
RMC-6236 was added to 384-well plates at 8-point concentration with 3-fold dilutions in triplicate. These assay-ready plates were then seeded with the thawed cell line pools. Adherent cell pools were plated at 1,250 cells per well, whereas suspension and mixed adherent/suspension pools were plated at 2,000 cells per well. Treated cells were incubated for 5 days, and then lysed. Lysate plates were collapsed together prior to barcode amplification and detection.
Each cell line's unique barcode is located in the 3′UTR of the blasticidin-resistance gene and therefore is expressed as mRNA. Total mRNA was captured using magnetic particles that recognize polyA sequences. Captured mRNA was reverse-transcribed into cDNA and then the sequence containing the unique PRISM barcode was amplified using PCR. Finally, Luminex beads that recognize the specific barcode sequences in the cell set were hybridized to the PCR products and detected using a Luminex scanner which reports the signal as a median fluorescent intensity (MFI).
• Each detection well contained 10 control barcodes in increasing abundances as spike-in controls. For each plate, we first create a reference profile by calculating the median of the log2(MFI) values across negative control wells for each of these spiked-in barcodes. • For each well, a monotonic smooth p-spline was fitted to map the spike-in control levels to the reference profile. Next, we transform the log2(MFI) for each cell barcode using the fitted spline to allow well-to-well comparisons by correcting for amplification and detection artifacts. • Next, the separability between negative and positive control treatments was assessed. In particular, we calculated the error rate of the optimum simple threshold classifier between the control samples for each cell line and plate combination. The error rate is a measure of the overlap of the two control sets and was defined as error = (FP + FN)/n, where FP is false positives, FN is false negatives, and n is the total number of controls. A threshold was set between the distributions of positive and negative control log2(MFI) values (with everything below the threshold said to be positive and above said to be negative) such that this value is minimized. Additionally, we also calculated the dynamic range of each cell line. […] Additionally, any cell line that had less than 2 passing replicates was also omitted for the sake of reproducibility. Finally, we computed viability by normalizing with respect to the median negative control for each plate.
For every gene with nonsilent mutations in at least four cell lines, we compared the AUC values between cells with and without those mutations using a t test. This analysis was carried out for (i) the full data set; (ii) excluding cell lines with nonsilent KRAS mutations; and (iii) excluding cell lines that have either KRAS or NRAS nonsilent mutations.

CCn1c(-c2cc(N3CCN(C)CC3)cnc2[C@H](C)OC)c2c3cc(ccc31)-c1csc(n1)C[C@H](NC(=O)[C@H]1C[C@@H]1C)C(=O)N1CCC[C@H](N1)C(=O)OCC(C)(C)C2 [RMC-6236]
RMC-6236: RevMed PRISM: AUC (42MGBA_CENTRAL_NERVOUS_SYSTEM): 0.8573 | RMC-6236: RevMed PRISM: AUC (94T778_SOFT_TISSUE): 0.7475 | RMC-6236: RevMed PRISM: AUC (95T1000_SOFT_TISSUE): 0.6212 | RMC-6236: RevMed PRISM: AUC (253JBV_URINARY_TRACT): 0.8447 | RMC-6236: RevMed PRISM: AUC (253J_URINARY_TRACT): 0.7913 | RMC-6236: RevMed PRISM: AUC (647V_URINARY_TRACT): 0.7963 | RMC-6236: RevMed PRISM: AUC (769P_KIDNEY): 0.8509 | RMC-6236: RevMed PRISM: AUC (786O_KIDNEY): 1 | RMC-6236: RevMed PRISM: AUC (921_UVEA): 0.7183 | RMC-6236: RevMed PRISM: AUC (1618K_TESTIS): 0.8085 | RMC-6236: RevMed PRISM: AUC (1777NRPMET_TESTIS): 0.8797 | RMC-6236: RevMed PRISM: AUC (8305C_THYROID): 0.7818 | RMC-6236: RevMed PRISM: AUC (9505BIK_PANCREAS, KRAS p.G12V): 0.2025 | RMC-6236: RevMed PRISM: AUC (A3KAW_HAEMATOPOIETIC_AND_LYMPHOID_TISSUE): 0.5106 | RMC-6236: RevMed PRISM: AUC (A101D_SKIN): 0.886 | RMC-6236: RevMed PRISM: AUC (A172_CENTRAL_NERVOUS_SYSTEM): 1 | RMC-6236: RevMed PRISM: AUC (A204_SOFT_TISSUE): 0.7672 | RMC-6236: RevMed PRISM: AUC (A253_SALIVARY_GLAND): 0.4481 | RMC-6236: RevMed PRISM: AUC (A375_SKIN): 0.833 | RMC-6236: RevMed PRISM: AUC (A498_KIDNEY): 0.6835 | RMC-6236: RevMed PRISM: AUC (A549_LUNG, KRAS p.G12S): 0.588 | RMC-6236: RevMed PRISM: AUC (A673_BONE): 0.9942 | RMC-6236: RevMed PRISM: AUC (A2780_OVARY): 0.7354 | RMC-6236: RevMed PRISM: AUC (ACHN_KIDNEY): 0.5715 | RMC-6236: RevMed PRISM: AUC (AM38_CENTRAL_NERVOUS_SYSTEM): 1 | RMC-6236: RevMed PRISM: AUC (AMO1_HAEMATOPOIETIC_AND_LYMPHOID_TISSUE, KRAS p.A146T): 0.879 | RMC-6236: RevMed PRISM: AUC (ANGMCSS_CENTRAL_NERVOUS_SYSTEM): 0.8471 | RMC-6236: RevMed PRISM: AUC (ASPC1_PANCREAS, KRAS p.G12D): 0.4632 | RMC-6236: RevMed PRISM: AUC (AU565_BREAST): 0.906 | RMC-6236: RevMed PRISM: AUC (BCPAP_THYROID): 0.8571 | RMC-6236: RevMed PRISM: AUC (BEN_LUNG): 0.8571 | RMC-6236: RevMed PRISM: AUC (BFTC905_URINARY_TRACT, NRAS p.Q61L): 0.6287 | RMC-6236: RevMed PRISM: AUC (BFTC909_KIDNEY): 0.8461 | RMC-6236: RevMed PRISM: AUC (BHT101_THYROID): 0.8444 | RMC-6236: RevMed PRISM: AUC (BICR6_UPPER_AERODIGESTIVE_TRACT): 0.626 | RMC-6236: RevMed PRISM: AUC (BICR31_UPPER_AERODIGESTIVE_TRACT): 0.6956 | RMC-6236: RevMed PRISM: AUC (BICR78_UPPER_AERODIGESTIVE_TRACT): 0.4863 | RMC-6236: RevMed PRISM: AUC (BOKU_CERVIX): 0.7111 | RMC-6236: RevMed PRISM: AUC (BT474_BREAST): 0.8139 | RMC-6236: RevMed PRISM: AUC (BXPC3_PANCREAS): 0.996 | RMC-6236: RevMed PRISM: AUC (C4I_CERVIX): 0.7241 | RMC-6236: RevMed PRISM: AUC (C80_LARGE_INTESTINE, KRAS p.A146V): 0.5069 | RMC-6236: RevMed PRISM: AUC (CAKI1_KIDNEY): 0.8381 | RMC-6236: RevMed PRISM: AUC (CAL12T_LUNG): 0.7366 | RMC-6236: RevMed PRISM: AUC (CAL27_UPPER_AERODIGESTIVE_TRACT, NRAS p.D92N, p.R68T): 0.5492 | RMC-6236: RevMed PRISM: AUC (CAL29_URINARY_TRACT): 0.5384 | RMC-6236: RevMed PRISM: AUC (CAL51_BREAST): 0.7042 | RMC-6236: RevMed PRISM: AUC (CAL78_BONE): 0.9476 | RMC-6236: RevMed PRISM: AUC (CAL148_BREAST): 1 | RMC-6236: RevMed PRISM: AUC (CALU1_LUNG, KRAS p.G12C): 0.5763 | RMC-6236: RevMed PRISM: AUC (CALU6_LUNG, KRAS p.Q61K): 0.6273 | RMC-6236: RevMed PRISM: AUC (CAMA1_BREAST): 1 | RMC-6236: RevMed PRISM: AUC (CAOV3_OVARY): 0.7429 | RMC-6236: RevMed PRISM: AUC (CAPAN2_PANCREAS, KRAS p.G12V): 0.3858 | RMC-6236: RevMed PRISM: AUC (CCK81_LARGE_INTESTINE): 0.8465 | RMC-6236: RevMed PRISM: AUC (CCSW1_BILIARY_TRACT): 0.6208 | RMC-6236: RevMed PRISM: AUC (CFPAC1_PANCREAS, KRAS p.G12V): 0.4566 | RMC-6236: RevMed PRISM: AUC (CH157MN_CENTRAL_NERVOUS_SYSTEM, NRAS p.Q61K): 0.6203 | RMC-6236: RevMed PRISM: AUC (CHAGOK1_LUNG): 0.5647 | RMC-6236: RevMed PRISM: AUC (CHLA10_BONE): 0.99 | RMC-6236: RevMed PRISM: AUC (CHLA57_BONE): 0.99 | RMC-6236: RevMed PRISM: AUC (CJM_SKIN, HRAS p.Q61L): 0.5971 | RMC-6236: RevMed PRISM: AUC (CL11_LARGE_INTESTINE, KRAS p.Q61H, p.V14I): 0.5015 | RMC-6236: RevMed PRISM: AUC (COGAR359_SOFT_TISSUE): 0.99 | RMC-6236: RevMed PRISM: AUC (COGE352_BONE): 0.8348 | RMC-6236: RevMed PRISM: AUC (COLO320_LARGE_INTESTINE): 0.6699 | RMC-6236: RevMed PRISM: AUC (COLO680N_OESOPHAGUS): 0.7369 | RMC-6236: RevMed PRISM: AUC (COLO741_SKIN): 1 | RMC-6236: RevMed PRISM: AUC (COLO783_SKIN): 0.9312 | RMC-6236: RevMed PRISM: AUC (COLO792_SKIN): 0.6729 | RMC-6236: RevMed PRISM: AUC (CORL88_LUNG): 0.6508 | RMC-6236: RevMed PRISM: AUC (CORL105_LUNG): 0.778 | RMC-6236: RevMed PRISM: AUC (CORL279_LUNG, NRAS p.K5R): 0.8133 | RMC-6236: RevMed PRISM: AUC (COV318_OVARY): 0.9026 | RMC-6236: RevMed PRISM: AUC (COV362_OVARY): 0.7721 | RMC-6236: RevMed PRISM: AUC (COV644_OVARY): 0.8618 | RMC-6236: RevMed PRISM: AUC (CW9019_SOFT_TISSUE): 0.779 | RMC-6236: RevMed PRISM: AUC (DANG_PANCREAS, KRAS p.G12V): 0.3305 | RMC-6236: RevMed PRISM: AUC (DAOY_CENTRAL_NERVOUS_SYSTEM): 0.7517 | RMC-6236: RevMed PRISM: AUC (DBTRG05MG_CENTRAL_NERVOUS_SYSTEM): 0.8324 | RMC-6236: RevMed PRISM: AUC (DKMG_CENTRAL_NERVOUS_SYSTEM): 1 | RMC-6236: RevMed PRISM: AUC (DMS79_LUNG): 0.9955 | RMC-6236: RevMed PRISM: AUC (DMS273_LUNG): 0.9198 | RMC-6236: RevMed PRISM: AUC (DOTC24510_CERVIX): 0.5945 | RMC-6236: RevMed PRISM: AUC (DU4475_BREAST): 0.8201 | RMC-6236: RevMed PRISM: AUC (ECC2_BILIARY_TRACT): 0.7214 | RMC-6236: RevMed PRISM: AUC (ECC10_STOMACH): 0.873 | RMC-6236: RevMed PRISM: AUC (EFE184_ENDOMETRIUM): 0.7492 | RMC-6236: RevMed PRISM: AUC (EFM19_BREAST): 1 | RMC-6236: RevMed PRISM: AUC (EFM192A_BREAST): 0.9985 | RMC-6236: RevMed PRISM: AUC (EFO21_OVARY): 0.6746 | RMC-6236: RevMed PRISM: AUC (EFO27_OVARY): 0.7784
